The list shows a part of the results. No stated cut-off is given here; in the data, active = 3.2 or more and inactive = the rest. Most of these values are background signal.
Tests used:
Experiment in all cases: enrichment score (SH2-bound / input frequency) (ratio); bacterial display of known human phosphotyrosine sites (pTyr-Var adds point mutants) read by sequencing; higher = stronger binding; tyrosines were phosphorylated by kinases first
Conditions in all cases: peptide library: pTyr-Var
[1] = molecular target: SHP2 C-SH2 domain E139D
[2] = molecular target: SHP2 C-SH2 domain wild-type
[3] = molecular target: SHP2 N-SH2 domain L43F
[4] = molecular target: SHP2 N-SH2 domain T42A
[5] = molecular target: SHP2 N-SH2 domain T52S
[6] = molecular target: SHP2 N-SH2 domain wild-type

Measured: enrichment score
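Further: displayed peptides selected on beads carrying the immobilized SH2 domain, with library peptides lacking any tyrosine serving as negative controls.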

QEALEYFMKQM [PIK3CA_Y1038]
inactive: [1] 1.33 | [2] 1.06 | [3] 0.852 | [4] 1.26 | [5] 1.27 | [6] 1.47

IRFSDYVEVAD [PHACTR1_Y525]
inactive: [1] 1.09 | [2] 1.26 | [3] 1.3 | [4] 1.02 | [5] 1.22 | [6] 1.1

FMRGMYFRMTD [PLA2G6_Y541_K545T_YF]
inactive: [1] 1.03 | [2] 1.28 | [3] 0.856 | [4] 1.02 | [5] 0.942 | [6] 0.911

MKVPLYETPAG [PGM5_Y358_V357L]
inactive: [1] 1.2 | [2] 0.907 | [3] 0.881 | [4] 0.827 | [5] 0.927 | [6] 0.906

HSDYQYSQRSQ [PKP2_Y168]
inactive: [1] 0.486 | [2] 0.669 | [3] 0.555 | [4] 0.537 | [5] 0.739 | [6] 0.917

RPGSGYTKIMR [PKLR_Y564_N566K]
inactive: [1] 1.25 | [2] 1.39 | [3] 1.02 | [4] 0.929 | [5] 0.85 | [6] 0.75

YMRGMYFRMTD [PLA2G6_Y541_K545T]
inactive: [1] 2.3 | [2] 2.82 | [3] 2.17 | [4] 1.92 | [5] 2.26 | [6] 2.22

SEPDLYFDPRG [PKP1_Y160_C161Y_YF]
inactive: [1] 0.709 | [2] 0.661 | [3] 0.655 | [4] 0.709 | [5] 0.603 | [6] 0.686

LVPPRYVRSEI [PKP2_Y194_A195V]
inactive: [1] 0.766 | [2] 0.735 | [3] 0.454 | [4] 0.54 | [5] 0.498 | [6] 0.566

EKSREYHRLFE [PIK3R1_Y463_D464H_YF]
inactive: [1] 0.922 | [2] 0.875 | [3] 0.684 | [4] 0.644 | [5] 0.692 | [6] 0.72

VGGRIYIDDGL [PKLR_Y218]
inactive: [1] 1.48 | [2] 1.15 | [3] 1.28 | [4] 0.832 | [5] 1.32 | [6] 1.23

VGGRIYIDDAL [PKLR_Y218_G222A]
inactive: [1] 0.943 | [2] 0.959 | [3] 0.926 | [4] 0.819 | [5] 0.78 | [6] 1.06

EDGRLYAVKRS [PKMYT1_Y136]
inactive: [1] 0.532 | [2] 0.485 | [3] 0.423 | [4] 0.505 | [5] 0.485 | [6] 0.583

TKQLTYEEQDL [PIK3C3_Y310]
inactive: [1] 0.575 | [2] 0.613 | [3] 0.611 | [4] 0.51 | [5] 0.633 | [6] 0.7

FDDIAYIRKNL [PIK3CA_Y1021_T1025N]
inactive: [1] 1.19 | [2] 0.858 | [3] 1.11 | [4] 0.743 | [5] 0.876 | [6] 1.33

YRDALYKSMVD [PHEX_Y250_F252S]
inactive: [1] 0.929 | [2] 0.996 | [3] 1.02 | [4] 0.712 | [5] 0.846 | [6] 1.02

NGRQCYSCRGN [PLAUR_Y217_K220R]
inactive: [1] 1.69 | [2] 1.78 | [3] 1.64 | [4] 1.6 | [5] 1.8 | [6] 1.71

EYHRLYEEYTR [PIK3R1_Y467_D464H]
inactive: [1] 0.913 | [2] 0.787 | [3] 0.913 | [4] 0.737 | [5] 0.737 | [6] 0.994

QEALEYFMKQI [PIK3CA_Y1038_M1043I]
inactive: [1] 1.34 | [2] 1.18 | [3] 1.18 | [4] 1.03 | [5] 1.23 | [6] 1.48

CNLDTYQKRLR [PLA2G2D_Y126_R121C]
inactive: [1] 0.582 | [2] 0.625 | [3] 0.469 | [4] 0.536 | [5] 0.67 | [6] 0.544

MGIMLYGVDSR [PKD1_Y3143_V3138M]
inactive: [1] 0.888 | [2] 0.921 | [3] 0.732 | [4] 0.747 | [5] 0.602 | [6] 1.14

DKGTLYIVEQI [PLBD1_Y375]
inactive: [1] 0.765 | [2] 0.998 | [3] 0.629 | [4] 0.744 | [5] 0.707 | [6] 1.05

QEALEYFMKQT [PIK3CA_Y1038_M1043T]
inactive: [1] 1.24 | [2] 1.22 | [3] 1.07 | [4] 0.959 | [5] 0.885 | [6] 1.16

LKGIRYLTSGL [PIGA_Y82_R77L]
inactive: [1] 1.14 | [2] 0.907 | [3] 0.86 | [4] 0.847 | [5] 0.799 | [6] 0.979

FDDIAHIRKTL [PIK3CA_Y1021_Y1021H]
inactive: [1] 0.836 | [2] 0.837 | [3] 0.862 | [4] 0.669 | [5] 0.957 | [6] 0.787

FRDALYKSMVD [PHEX_Y250_F252S_YF]
inactive: [1] 1.02 | [2] 1.08 | [3] 0.969 | [4] 0.857 | [5] 0.89 | [6] 0.82

HSDFQYGQRSQ [PKP2_Y168_S169G_YF]
inactive: [1] 0.685 | [2] 0.57 | [3] 0.473 | [4] 0.548 | [5] 0.636 | [6] 0.612

EESREYDRLYE [PIK3R1_Y463_K459E]
inactive: [1] 0.546 | [2] 0.631 | [3] 0.513 | [4] 0.536 | [5] 0.571 | [6] 0.637

HSDYQYGQRSQ [PKP2_Y168_S169G]
inactive: [1] 0.568 | [2] 0.484 | [3] 0.535 | [4] 0.562 | [5] 0.509 | [6] 0.379

FTHSDYQFSQR [PKP2_Y166_YF]
inactive: [1] 0.806 | [2] 0.697 | [3] 0.764 | [4] 0.676 | [5] 0.613 | [6] 0.905

ELPEKYSQNIC [PKP2_Y626_Y631C]
inactive: [1] 0.608 | [2] 0.741 | [3] 0.6 | [4] 0.673 | [5] 0.601 | [6] 0.721

HSDFQYSQRSQ [PKP2_Y168_YF]
inactive: [1] 0.764 | [2] 0.847 | [3] 0.647 | [4] 0.587 | [5] 0.951 | [6] 0.623

QGCGIYKDYYR [PLA2G2D_Y82_S80G]
inactive: [1] 1.19 | [2] 1.27 | [3] 1.14 | [4] 1.2 | [5] 1.05 | [6] 1.57

LVPPRYARSEI [PKP2_Y194]
inactive: [1] 0.69 | [2] 0.775 | [3] 0.834 | [4] 0.629 | [5] 0.676 | [6] 0.666

PVPKTYDMLKA [PKP2_Y108]
inactive: [1] 0.749 | [2] 0.901 | [3] 0.825 | [4] 0.609 | [5] 0.721 | [6] 1.18

KKLHEYNTQFQ [PIK3R1_Y452]
inactive: [1] 0.925 | [2] 0.753 | [3] 0.731 | [4] 0.74 | [5] 0.683 | [6] 0.823

QGCSIYKDFFR [PLA2G2D_Y82_YF]
inactive: [1] 1.27 | [2] 0.989 | [3] 1.25 | [4] 1.26 | [5] 1.23 | [6] 1.26
